In PubChem BioAssay AID504466 (National Center for Advancing Translational Sciences (NCATS), 2011):
Among all 330,000 compounds or so, about 4,200 (1.3%) were called active. Inconclusive means that the source gave no clear call. Such entries were picked first, then a sample of the others. The call rests on the fitted dose curve; in most records, active means well fitted activation curve with a large enough effect; inconclusive means small, poorly fitted or top-dose-only effect; inactive means no such curve, though single readings can be large or run the other way. Where the call is inconclusive, the potency comes from a doubtful curve fit.

Assay: qHTS screen for small molecules that induce genotoxicity in human embryonic kidney (HEK293T) cells expressing luciferase-tagged ELG1; further: nearly all actives have a fitted effect of over 60% in size
Details: HEK293T ELG1-luciferase reporter, luminescence, 16 h; series mostly up to 46 µM
Outline: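 16 hr compound incubation (37 °C, 5% CO2) of HEK293T cells carrying luciferase-tagged ELG1; luciferase then measured by ONE-Glo luminescence after 30 min at RT.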
Potency means the concentration at half of the fitted maximal effect; tags describe the fitted curve by direction and shape.

For `O=C(O)c1ccc(-n2c(/C=C/c3cccc([N+](=O)[O-])c3)nc3ccccc3c2=O)cc1`, which Potency is on record?
Its Potency is “inactive”.

Which Potency does the source give for `NC(=O)C1=C[C@H](c2ccc3c(c2)OCO3)C[C@H](OCc2ccc(CO)cc2)O1` here?
The Potency was inconclusive: 20.6 µM [activator, single point].

With `Clc1cccc(N=C2NN=C(c3ccc4c(c3)OCCO4)CS2)c1` as the compound, how does the Potency read?
The Potency was active: 2.31 µM.

For `CC(C)c1ccc(C2C3=C(COC3=O)Nc3cc4c(cc32)OCO4)cc1` (configuration not stated), which Potency is on record?
Its Potency is inconclusive: 2.59 µM [activator, full curve].

With `COCCn1c(C)cc(C(=O)Cn2nc(C(=O)O)c3ccccc3c2=O)c1C` as the compound, how does the Potency read?
Its Potency is active: 8.2 µM.

Which Potency does the source give for `COCCNc1oc(COc2cccc(C)c2)nc1C#N` here?
Its Potency is inconclusive: 20.6 µM [activator, single point].

With `Nc1nonc1-c1noc(CCCCCN2C(=O)c3ccccc3C2=O)n1` as the compound, how does the Potency read?
The Potency was inconclusive: 17.8 µM [activator, single point].

Which Potency does the source give for `CC(C)(C)c1ccc2c(c1)OC(C(=O)N/N=C\c1ccccn1)CO2` (configuration not stated) here?
Its Potency is “inactive”.

For `Cn1c(=O)[nH]c(=O)c2c1nc(Br)n2Cc1cccc(Br)c1`, which Potency is on record?
Its Potency is inconclusive: 18.3 µM [activator, single point].

With `COc1ccc(CC(=O)OCC(=O)N2CCCc3ccccc32)cc1OC` as the compound, how does the Potency read?
The Potency was “inactive”.

Which Potency does the source give for `CN(Cc1cn(-c2ccccc2)nc1-c1cc2ccccc2o1)C(=O)CCC(=O)O` here?
The Potency was inconclusive: 18.3 µM [activator, partial curve, poor fit].

Which Potency does the source give for `O=C(Nc1c(C(=O)Nc2cccc(F)c2)oc2ccccc12)c1ccc2c(c1)OCO2` here?
The Potency was inconclusive: 20.6 µM [activator, partial curve, poor fit].

For `COc1ccccc1C(=O)Nc1nnc(C)s1`, which Potency is on record?
Its Potency is active: 13 µM.

With `CCN1CCN(C(=O)C(C)Oc2ccc(S(=O)(=O)N3CCCC3)cc2C(N)=O)CC1` (configuration not stated) as the compound, how does the Potency read?
Its Potency is “inactive”.

Which Potency does the source give for `O=C(NC(=S)NCC1CCCO1)c1ccc(Cl)cc1` (configuration not stated) here?
Its Potency is inconclusive: 18.4 µM [activator, partial curve, poor fit].

Which Potency does the source give for `COc1cc2nc(N3CCNCC3)nc(N)c2cc1OC` here?
The Potency was inconclusive: 23.1 µM [activator, partial curve, poor fit].

For `COc1ccc(NC(=O)Nc2ccc3c(c2)OCO3)c(C)c1`, which Potency is on record?
Its Potency is inconclusive: 29.1 µM [activator, single point].

With `CCOc1ccc(S(=O)(=O)Nc2ccc3c(c2)n(C)c(=O)n3C)cc1` as the compound, how does the Potency read?
The Potency was inconclusive: 32.6 µM [activator, partial curve, poor fit].

With `Nc1cccc(C#Cc2ccc3c(=O)c4ccccc4oc3c2)c1` as the compound, how does the Potency read?
The Potency was inconclusive: 0.461 µM [activator, full curve].

For `CSc1cccc(NC(=O)CSc2ccccc2)c1`, which Potency is on record?
Its Potency is inconclusive: 20.6 µM [activator, single point].

For `O=C(Nc1ccc(Cl)cc1)N1CCC(c2nc(-c3ccccc3Cl)no2)CC1`, which Potency is on record?
Its Potency is “inactive”.

For `Cc1ccc(NC(=S)Nc2ncccc2C)c(C)c1`, which Potency is on record?
The Potency was inconclusive: 2.59 µM [activator, full curve, poor fit].

Which Potency does the source give for `Cc1ccc(NC(=O)c2cc(-c3cccs3)on2)cc1` here?
Its Potency is active: 11.2 µM.

With `CCOc1ccc(OCC)c(NS(=O)(=O)c2ccc3c(c2)CCN3C(=O)C2CCC2)c1` as the compound, how does the Potency read?
Its Potency is “inactive”.

With `COC(C[C@@H]1O[C@@H]1[C@H](O)[C@@H](C)OCc1ccccc1)OC` as the compound, how does the Potency read?
Its Potency is “inactive”.

With `Cc1ccc2nc(SCC(=O)c3ccccc3)nc(=O)n2c1` as the compound, how does the Potency read?
Its Potency is inconclusive: 7.3 µM [activator, partial curve].

For `COc1ccc(CCN2CC(C(=O)N(C)Cc3ccc(C)o3)CCC2=O)cc1` (configuration not stated), which Potency is on record?
Its Potency is inconclusive: 14.6 µM [activator, partial curve, poor fit].

For `CCC(C)c1ccc(O)c(/C=N/O)c1` (configuration not stated), which Potency is on record?
Its Potency is inconclusive: 20.6 µM [activator, single point].

For `CCCOc1ncnc2c1[nH]c1ccc(C)cc12`, which Potency is on record?
Its Potency is inconclusive: 0.82 µM [activator, partial curve].

With `Cc1ccc(/C=C(\C#N)C(=O)NCc2ccco2)o1` as the compound, how does the Potency read?
The Potency was inconclusive: 20.6 µM [activator, partial curve, poor fit].

For `COc1ccc(OCc2cc(C(=O)N3CCCC(CO)C3)no2)c2ccccc12` (configuration not stated), which Potency is on record?
The Potency was inconclusive: 7.3 µM [activator, partial curve].

With `Cc1ccccc1-c1nc(Cc2ccccc2)no1` as the compound, how does the Potency read?
Its Potency is inconclusive: 16.4 µM [activator, partial curve, poor fit].

With `O=C(NCC1CCN(c2ccc(S(=O)(=O)N3CCOCC3)cc2)CC1)Nc1ccccc1` as the compound, how does the Potency read?
The Potency was “inactive”.

With `O=C(Nc1ccc(F)cc1)c1nc[nH]c1C(=O)Nc1ccccc1[N+](=O)[O-]` as the compound, how does the Potency read?
The Potency was inconclusive: 20.6 µM [activator, single point].

With `Cc1ccc(F)c(NC(=O)CCc2ccccc2)c1` as the compound, how does the Potency read?
The Potency was inconclusive: 18.4 µM [activator, single point].

Which Potency does the source give for `CCOc1ccc(C(=O)C(CN2CCOCC2)c2ccccc2)cc1` (configuration not stated) here?
Its Potency is “inactive”.

With `CN1CCN(C2Cc3ccccc3Sc3ccc(Cl)cc32)CC1` (configuration not stated) as the compound, how does the Potency read?
The Potency was inconclusive: 29.1 µM [activator, partial curve, poor fit].

Which Potency does the source give for `C=CCn1c(=S)[nH]c2nc3c(cc2c1=O)CCCC3` here?
Its Potency is active: 16.4 µM.

For `N/C(=N\OC(=O)c1ccoc1)c1ccc(Br)cc1`, which Potency is on record?
Its Potency is active: 3.66 µM.

With `Cc1ccc(/C(N)=N/OC(=O)c2ccc(Cl)cc2Cl)cc1` as the compound, how does the Potency read?
Its Potency is inconclusive: 1.46 µM [activator, full curve].

Which Potency does the source give for `COc1cc(C(=O)NC2CCCc3ccccc32)cc(OC)c1OC` (configuration not stated) here?
The Potency was inconclusive: 23.1 µM [activator, partial curve, poor fit].

For `COc1ccc(C(=O)Nc2ccccc2C(=O)Nc2cccnc2)cc1`, which Potency is on record?
The Potency was inconclusive: 3.66 µM [activator, single point].

With `O=C1/C(=C/c2ccncc2)Oc2cc(OS(=O)(=O)c3ccccc3)ccc21` as the compound, how does the Potency read?
The Potency was inconclusive: 20.6 µM [activator, single point].

For `CC(C)(C)c1ccc(C(=O)N2CCC(=O)N(C(CO)Cc3ccccc3)CC2)cc1` (configuration not stated), which Potency is on record?
Its Potency is “inactive”.

With `Cc1ccc(NC(=O)CCCNC(=O)c2ccc(Cl)cc2)c(O)c1` as the compound, how does the Potency read?
The Potency was inconclusive: 16.4 µM [activator, single point].

With `NS(=O)(=O)c1ccc(NC(=O)c2cc(-c3cc(Cl)ccc3O)n[nH]2)cc1` as the compound, how does the Potency read?
The Potency was “inactive”.

For `CC1SC(=S)N(c2ccc(N(C)C)cc2)C1=O` (configuration not stated), which Potency is on record?
The Potency was “inactive”.

Which Potency does the source give for `COc1ccc(CCC(=O)OCC(=O)Nc2ccccc2)cc1` here?
The Potency was inconclusive: 18.3 µM [activator, partial curve, poor fit].

Which Potency does the source give for `CCOc1ccc(C(=O)NCC(=O)OCC(=O)Nc2cccc(S(=O)(=O)N3CCCC3)c2)cc1` here?
Its Potency is “inactive”.

Which Potency does the source give for `Cc1cc(N2CCOCC2)n2ncc(-c3ccccc3)c2n1` here?
Its Potency is active: 0.184 µM.

Which Potency does the source give for `CCn1c(SCC(=O)Nc2ccc(C(C)=O)cc2)nc2nc3c(cc2c1=O)COC(C)(C)C3` here?
The Potency was inconclusive: 16.4 µM [activator, single point].

Which Potency does the source give for `CC(C)CCNC(=O)CN(C(=O)CCC(=O)Nc1ccccn1)c1ccc2c(c1)OCCO2` here?
Its Potency is inconclusive: 18.4 µM [activator, partial curve, poor fit].

With `CCCCCCC(NC(=O)c1ccc(C)cc1)C(=O)O` (configuration not stated) as the compound, how does the Potency read?
Its Potency is “inactive”.

With `CCC(C)c1ccc(NC(=O)CC(C)=O)cc1` (configuration not stated) as the compound, how does the Potency read?
Its Potency is inconclusive: 12.6 µM [activator, single point].

With `CC(=O)Nc1ccc2oc(-c3cc(F)c(F)cc3Cl)nc2c1` as the compound, how does the Potency read?
The Potency was active: 1.84 µM.

With `C/C(=C\C(=O)c1ccccc1)Nc1ccc(O)cc1` as the compound, how does the Potency read?
Its Potency is active: 6.51 µM.

Which Potency does the source give for `O=C(c1ccc(S(=O)(=O)Nc2cccc(C(F)(F)F)c2)cc1)N1CCC1` here?
Its Potency is “inactive”.

For `CCC(C(=O)Nc1ccc2c(c1)OCCO2)n1c(=O)[nH]c2ccccc2c1=O` (configuration not stated), which Potency is on record?
Its Potency is inconclusive: 23.1 µM [activator, partial curve, poor fit].

For `COc1ccc(NS(=O)(=O)c2cc(NC(=O)c3cccc(OCc4c(C)noc4C)c3)ccc2OC)cc1`, which Potency is on record?
The Potency was “inactive”.

With `Cc1ccc(C(=O)NCCc2ccncc2)cc1` as the compound, how does the Potency read?
The Potency was inconclusive: 20.6 µM [activator, partial curve].

With `N#Cc1c(N)nc2c(c1-c1ccccc1)CCC2` as the compound, how does the Potency read?
Its Potency is inconclusive: 18.3 µM [activator, partial curve, poor fit].

Which Potency does the source give for `COc1ccccc1CNC(=O)CCC1N=C2c3ccccc3N=C(SCC(=O)NCC3CCCO3)N2C1=O` (configuration not stated) here?
The Potency was “inactive”.

Which Potency does the source give for `Nc1ccc(O)cc1C(=O)OCC(=O)c1ccc(C2CCCCC2)cc1` here?
The Potency was inconclusive: 13 µM [activator, partial curve, poor fit].

For `CCCOc1ccc(CSc2n[nH]c(C)n2)cc1`, which Potency is on record?
Its Potency is inconclusive: 8.2 µM [activator, partial curve].

For `CC(=O)Oc1ccc(/C=N/NC(=S)Nc2ccccc2)cc1`, which Potency is on record?
Its Potency is active: 9.2 µM.

With `CCCOC(=O)c1c(-c2ccc(C)cc2C)csc1NC(=O)C1C2CCC(O2)C1C(=O)O` (configuration not stated) as the compound, how does the Potency read?
The Potency was “inactive”.

For `Oc1ccc(-c2nc(-c3ccc(O)c(O)c3)cs2)cc1`, which Potency is on record?
The Potency was inconclusive: 10.3 µM [activator, partial curve].

With `CCNc1nc(NCC)nc(Oc2ccc(OCC)nn2)n1` as the compound, how does the Potency read?
The Potency was inconclusive: 18.4 µM [activator, single point].

For `Cc1c(C(=O)Nc2cccnc2Cl)oc2ccccc12`, which Potency is on record?
The Potency was inconclusive: 14.6 µM [activator, partial curve].

For `Cc1ccc(CNC(=O)Nc2ccccc2)c(C)c1`, which Potency is on record?
Its Potency is active: 18.3 µM.

Which Potency does the source give for `COc1ccc(-c2cc3nc(C)n(N)c(=O)c3s2)cc1` here?
Its Potency is inconclusive: 0.058 µM [activator, partial curve, poor fit].

With `CC(C)(C)n1cnc2cc(NCc3ccc(Br)cc3)ccc21` as the compound, how does the Potency read?
Its Potency is inconclusive: 5.8 µM [activator, partial curve].
